Source: the RNAGym collection of RNA variant scans (doi:10.7554/elife.90254)
The source gives no read counts; variants with many changes may rest on few reads.

B1: LINE1-mini (parent)
chain: GGCAGAGCUCAACACAGCGUGGCAAAGUGGCUGUGGCUAGACUGCC

Variants of: B1
Test: self-cleavage, relative activity (ratio to wild type); higher = more cleavage; in vitro, sequencing; the parent is a self-cleaving ribozyme

Row | Variant | self-cleavage
1 | A25G G36A C46G | 0.11
2 | G7C A26G A41G C42G | 0.02
3 | A16U G33U G40A | 0.05
4 | G7U G22U C23U C46A | 0.04
5 | G2U C37G G40U | 0.01
6 | A6C C15U C23A G30A | 0.5
7 | C10A G19C G21U U32A | 0.01
8 | A12U G21U G29C | 0.23
9 | A16U A39C C46A | 0.14
10 | C3U A6C U20C C31G | 0.04
11 | C10G G17C C23G G44U | 0.02
12 | A25U G36U A39G | 0.7
13 | A16G A25C A41U | 0
14 | C10A C13U A24C A26U G27U | 0.01
15 | C8A A12C C18A G27C U28A | 0.02
16 | C13G U28C G40C | 0.03
17 | A6G C18U C37U | 0.02
18 | A6G G19C C23A | 0.04
19 | A12C C13A G22C | 0.15
20 | C13A C23U G33U C45U | 0.02
21 | G2A G7C G19C G36A C45G | 0.23
22 | G2A G33A C46U | 0.22
23 | G2U C8G C31A G35U G44A | 0.05
24 | A4G C15A A41U | 0.11

Row | Variant | self-cleavage
25 | C10G G17C A39G | 0.02
26 | C3G U9G G33U G40A C42U | 0.11
27 | A11C U28G G30U C42U | 0.01
28 | C8G U28A U43C | 0.02
29 | C3G C18U C31A G36U U38A | 0.04
30 | G7C C15A G36U | 0.12
31 | G2A C13G A25U | 0.17
32 | U9C A14U A24C C31G | 0.01
33 | G19C G22A A26U | 0.24
34 | G21A A25C U28G C31U | 1.4
35 | A14C C37A G44A | 0.05
36 | C10U A39C U43A | 0.05
37 | C10U U20A A41U | 0.02
38 | C3A A14G G19U G40C | 0.05
39 | C15A C18G G19C G21U A26G U43C | 0.04
40 | G1A G17U A24U G33C | 0.05
41 | U9G U34A G40A C42A | 0.02
42 | G1U C15A G44U | 0.12
43 | A6G A25C U38A G44C | 0.06
44 | C13A C23U A39G | 0.09
45 | A4C C10A C13A A26C U32C G44A | 0.01
46 | A6U G19A G30C U34A G44C | 0.1
47 | G19A G40C G44U | 0.45
48 | C15G U20C G29C G33U U38C C42U | 0.09

Row | Variant | self-cleavage
49 | G17U G19U C31A U34G | 0.08
50 | G2C A24C G30A | 0.05
51 | G1U G5U G36A | 0.13
52 | C15A A25C G29C U43A | 0.02
53 | C23U G29U C46G | 2.24
54 | C3A U34G U43A | 0.02
55 | G2C C3A U20G | 0.05
56 | G22A A25C G29U U34G | 0.12
57 | C3U C8A C13U C18G G22C G33U | 0.14
58 | C10G U20A G40C | 0
59 | G17C C18A C46U | 0.08
60 | G2U C15A G30U G33U | 0.05
61 | C8U C13G U32G U38A | 0.17
62 | G7A A12U U32G A41G | 0.08
63 | A4G G21U C46U | 0.62
64 | A6G C15U C23A | 0.06
65 | G21U G29U A39G A41U | 0.08
66 | G1U A11G G17C C18U G33U | 0.01
67 | G5C G22C G35U | 0.05
68 | G1A C37G G40C | 0.02
69 | G22A G29A C42U G44C | 0.07
70 | C8G A25C C31A C37A | 0.01
71 | C13A C15U U20C G21C U32A | 0.02
72 | U20C C23U U28G C45U | 0.72

Row | Variant | self-cleavage
73 | G1U A4G G33A | 0.06
74 | G5U A11U G21U G35U | 0.02
75 | A4C A11U G19C U20C C31U A41C G44U | 0.01
76 | G7C C8A G19C G27U G30A C42U | 0.2
77 | A11C A14C G30C G44U | 0
78 | G2U A11G G19U G33U | 0.01
79 | G7U A11U C13G G27A G30U A39C | 0.02
80 | G22C C23A U28C G36A U38A | 0.01
81 | C10G G17A U28A G35U G40A | 0.02
82 | G2C G7U G22A C37G | 0.08
83 | G22U U28C C37G | 0.02
84 | G7C G29U G36U | 0.02
85 | A4C G7U C18A G22U C23A U28A | 0.04
86 | G2C A11U A16G G22U | 0.01
87 | G17U G29U G30C U38G | 0.02
88 | C15U U20C G33A | 0.77
89 | G5U A26C C46U | 0.03
90 | C8A C18U U28C U34C G40A | 0.12
91 | A12G U28C C31A | 0.01
92 | A4C C15U A39G | 0.29
93 | C8U C13U C18A C37U | 0.42
94 | C3U C8U U32C G44A | 0.53
95 | G5A G19C G33U U34A | 0.04
96 | C8U G19C G30A | 0.19

Row | Variant | self-cleavage
97 | G1A C18G G22A G44A | 0.2
98 | C8G U20C G40A | 0.05
99 | G17C G30A U34C U43C | 0.06
100 | G1U G7U C15U G27U | 0.04
101 | G7C C8G A16C | 0.01
102 | G27U C31A A41G C42G | 0.16
103 | G19C C31A U32G | 0.04
104 | C13U G19C U28C U43G | 0.3
105 | G5U G22U G40U | 0.04
106 | G2A G35C C46U | 0.18
107 | A6U G7C G22U A41G | 0.05
108 | G2A C13G C31G G33C U38C | 0.02
109 | G7U U9G G21A C23G A24C A26U G30C U34C | 0.02
110 | A4U A25C U28A U34C | 0.05
111 | C10G G17C C18U C37U U43C | 0
112 | G5C G22C G27A G30A U43A C45U | 0
113 | G7U A16C A26U | 0.02
114 | G2U A14U C15G | 0.05
115 | A24U U34G C46G | 0.01
116 | U34G A41G C45A | 0
117 | G5C C8U G33U A41G | 0.16
118 | G1C C13G A25G A41C | 0.02
119 | G7U U9G G22U G29C | 0.03
120 | C10G C18G G35C | 0.02

Row | Variant | self-cleavage
121 | G1C A6G C8G U34G U38G C45U | 0
122 | A11G G40A C42U | 0.03
123 | G1C C10A G19C G27C C45A C46A | 0
124 | C23U G33U C37G G44U | 0.09
125 | A4U A11G G27A | 0.01
126 | A4U G22U U28A U38C | 0.25
127 | C3A G21U C23A U32G C46A | 0.05
128 | G5C C15U G21A | 0.06
129 | C10U G30C A41U G44A | 0.02
130 | G5U U34G C42A C45U | 0
131 | A12U C13A A16G U32A U34A | 0.02
132 | C3A A4C C15U U43C | 0.35
133 | C3G A24C C45A C46G | 0.02
134 | A6G G44A C46A | 0
135 | A6C C23A G33U | 0.06
136 | A26C G30C C46U | 1.42
137 | C13G G19C G22U | 0.18
138 | A11C G22A A24C C31A C46G | 0.01
139 | G1C G7C C8A | 0.02
140 | G7U C15U G36C | 0.03
141 | C3G A6G U9G G22A | 0.12
142 | C23A A26G G27C | 1.42
143 | A6U C18G A25C G27U A39G C42U | 0.04
144 | A12U A26U G44C | 0.03

Row | Variant | self-cleavage
145 | C8U U9A C10G C15G | 0.01
146 | A12U G33A C42U | 0.03
147 | G21A U28C G30A C37A | 0.07
148 | G2U C8A A12U C13G U34A | 0.05
149 | G2C A6G C10A G35A | 0.19
150 | A6G A12C G21A A24C C42G | 0.01
151 | U9C C31A C37U | 0.03
152 | G7C G21C G33C | 0.04
153 | C8G U20C C31U C37A | 0.07
154 | A4U G7C A12U C13A G27C G30U | 2.24
155 | G2A U9A G17A A24C U32A G40U | 0.45
156 | A4G C10A A12G U28A | 0.06
157 | A4G A26G G30A U38C C42U U43A C45G | 0.08
158 | C10G G19U C23U | 0.06
159 | C18G U34C G35C C37G | 0.02
160 | G19C C31G G33U C46U | 0.08
161 | A25U G27C G40C | 0.12
162 | A6G G22C G33A C37A | 0.01
163 | C3U C10G G29A C31G | 0.03
164 | G5C C23G A24U | 0.03
165 | G29A C31G C42U U43G | 0.09
166 | A16U G30U U32C | 0.02
167 | C18U C31A C46A | 0.04
